Paper PMC4336329 (PLoS ONE, 2015)
About 14,000 (4.5%) of roughly 310,000 compounds showed an effect of 50% or more. Effects have a minus sign here. This is one part of the list.

These compounds were tested against human ether-à-go-go-related gene (hERG) potassium channel (human, UniProt Q12809) (assay: primary screen, population patch clamp on CHO cells stably expressing hERG).
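Note: peak tail current of the secondary pulse compared with the same well before compound.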

Chain of human ether-à-go-go-related gene (hERG) potassium channel (Q12809 whole entry, looked up): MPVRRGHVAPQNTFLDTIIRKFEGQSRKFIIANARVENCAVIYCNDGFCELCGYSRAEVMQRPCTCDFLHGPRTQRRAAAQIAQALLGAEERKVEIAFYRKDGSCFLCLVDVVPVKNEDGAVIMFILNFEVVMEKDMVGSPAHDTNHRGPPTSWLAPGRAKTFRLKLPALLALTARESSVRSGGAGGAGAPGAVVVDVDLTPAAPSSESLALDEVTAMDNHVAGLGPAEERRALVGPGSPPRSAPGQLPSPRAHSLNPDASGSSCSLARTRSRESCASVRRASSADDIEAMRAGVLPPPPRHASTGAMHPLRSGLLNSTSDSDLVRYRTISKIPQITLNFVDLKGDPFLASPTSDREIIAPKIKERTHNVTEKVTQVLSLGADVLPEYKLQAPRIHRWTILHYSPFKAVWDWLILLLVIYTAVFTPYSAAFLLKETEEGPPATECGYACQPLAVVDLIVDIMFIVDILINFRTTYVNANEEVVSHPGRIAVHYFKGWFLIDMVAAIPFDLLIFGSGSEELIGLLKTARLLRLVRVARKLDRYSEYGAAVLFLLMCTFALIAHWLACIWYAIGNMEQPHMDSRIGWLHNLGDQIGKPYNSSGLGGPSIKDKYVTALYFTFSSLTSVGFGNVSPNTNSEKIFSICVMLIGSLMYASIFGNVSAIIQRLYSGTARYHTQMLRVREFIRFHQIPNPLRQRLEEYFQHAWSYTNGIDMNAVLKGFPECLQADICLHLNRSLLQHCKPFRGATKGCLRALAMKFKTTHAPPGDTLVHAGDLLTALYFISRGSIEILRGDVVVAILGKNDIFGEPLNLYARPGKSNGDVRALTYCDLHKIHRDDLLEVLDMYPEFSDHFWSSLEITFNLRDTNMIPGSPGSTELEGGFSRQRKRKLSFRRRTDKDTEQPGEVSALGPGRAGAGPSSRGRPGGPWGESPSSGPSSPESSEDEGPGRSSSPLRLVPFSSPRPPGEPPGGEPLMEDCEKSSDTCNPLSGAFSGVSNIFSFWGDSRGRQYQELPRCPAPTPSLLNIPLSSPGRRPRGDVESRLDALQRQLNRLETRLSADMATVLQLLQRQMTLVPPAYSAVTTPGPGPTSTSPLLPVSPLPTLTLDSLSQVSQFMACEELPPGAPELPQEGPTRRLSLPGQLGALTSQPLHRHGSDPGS

| SMILES | hERG current change (%, negative = inhibition) at 10uM |
| --- | --- |
| Cn1nnc(NC(=O)C(c2ccccc2)c2ccccc2)n1 | 8.03% |
| CC(=O)N1[C@H](Cc2ccccc2)C=C[C@]1(C)C(=O)NCCc1c[nH]c2ccccc12 | -7.5% |
| O=C(COC(=O)c1ccccc1Nc1ccc(SC(F)F)cc1)NC1CC1 | -19.4% |
| Cn1c(COc2ccccc2)nnc1SCC(=O)NCc1ccccc1 | -21.4% |
| COc1ccc(CN(Cc2ccc(C(=O)O)cc2)C(=S)Nc2ccccc2Cl)cc1OC | 9.81% |
| COc1cc(S(=O)(=O)NC2CCCCC2C)ccc1-n1cnnn1 (stereo not drawn) | -7.98% |
| O=C(N/C(=C\c1ccc(Br)cc1)C(=O)N1CCCC1)c1cccs1 | -27.7% |
| O=C(NC1CCCCC1)C1CCC(=O)N(Cc2cccc(C(F)(F)F)c2)C1 (stereo not drawn) | 5.98% |
| N#C/C(=C1/CCCCCN1)c1nnc2n1CCCCC2 | 16.8% |
| COCCN(C(=O)c1cccc(-n2cnnn2)c1)c1c(N)n(CC(C)C)c(=O)[nH]c1=O | 2.86% |
| O=C(NC(=S)Nc1ccc(N2CCN(C(=O)c3ccccc3)CC2)cc1)c1cccs1 | 9.96% |
| COc1ccc(/C=C/C(=O)Nc2ccc(-n3nncc3-c3ccc(OC)c(OC)c3)cc2)cc1OC | -4.84% |
| CSc1ccccc1NC(=O)CN(C)C(=O)CCc1c[nH]c2ccccc12 | 0.0989% |
| N/C(=N\OC(=O)CCn1cccc(C(F)(F)F)c1=O)c1ccc(OC(F)(F)F)cc1 | -22.2% |
| O=C(CCc1ccccc1)OCC(=O)c1cccc([N+](=O)[O-])c1 | 12.3% |
| O=C(Nc1ccc(Cl)cc1)c1cc(S(=O)(=O)N2CCOCC2)cs1 | -51.2% |
| C=Cn1cc[n+](CC(=O)c2ccc(Cl)cc2)c1.[Br-] | 12% |
| CN(c1ccc(C(=O)N2CCN(Cc3ccccc3)CC2)cc1)S(=O)(=O)c1ccc(Cl)cc1 | -24.9% |
| COc1ccc(C)cc1NC(=O)c1nnn(Cc2cccc(F)c2)c1N | 7.11% |
| O=C(OCC(=O)N1CCCCCC1)c1cnc(Cl)c(Cl)c1 | -2.83% |
| CCOc1ccc(C)cc1S(=O)(=O)n1nc(C)cc1C | -2.24% |
| O=C(CNC(=O)CNC(=O)c1ccc(Cl)cc1Cl)NCc1cccc(Cl)c1 | -1.95% |
| O=C(NCCN1CCOCC1)N1CCOCC1 | -12.4% |
| Cl.O=C1C2C3C=CC(C4CC34)C2C(=O)N1CCCCN1CCN(c2ccc(F)cc2)CC1 (stereo not drawn) | -69.3% |
| Cc1ccc(C(O)(C(=O)NNC(=O)CN2CCN(C)CC2)c2ccc(C)cc2)cc1 | 8.88% |
| Cl.NC1=NC2(CCCCC2)N(c2cccc(Cl)c2)C(N)=N1 | 27.9% |
| O=C(NN=c1c(=O)c2ccccc2c1=O)c1ccccc1 | -23.4% |

| SMILES | hERG current change (%, negative = inhibition) at 10uM |
| --- | --- |
| CC(C)[C@H](NC(=O)[C@@H]1CSC2c3ccccc3C(=O)N21)C(=O)NC1CCCC1 (stereo partly drawn) | 7.68% |
| CCc1ccc2c(c1)C(O)(CC(=O)c1cccs1)C(=O)N2 (stereo not drawn) | 7.54% |
| CCc1nnc(NC(=O)C(C)C)s1 | -0.304% |
| COc1cc2nc(N3CCN(C(=O)c4ccco4)CC3)nc(N)c2cc1OC.Cl.O | -28.2% |
| COC(=O)c1cc(OC)c(OC)cc1NCC(=O)Nc1ccc(C)cc1 | -7.1% |
| Cc1ccc(NC(=O)CCNC(=O)c2ccccc2Cl)cc1S(=O)(=O)N1CCCCCC1 | -6.13% |
| COc1c(/C=N/Nc2ccc([N+](=O)[O-])cc2[N+](=O)[O-])c(C)nn1-c1ccccc1 | 1% |
| O=C(COC(=O)C1(c2ccc(Cl)cc2)CCCC1)NC1CCS(=O)(=O)C1 (stereo not drawn) | -29.1% |
| C[N+]1(C)C2CCC1CC(OC(=O)c1ccco1)C2.[Br-] (stereo not drawn) | 7.81% |
| COc1ccccc1OCc1nc2ccccc2n1C | 3.46% |
| CCCn1c(SCC(=O)Nc2ccc(OCC)cc2)nnc1C(C)C | -9.81% |
| CC(=O)Nc1ccc(S(=O)(=O)N2CCCC2C(=O)Nc2ccc(F)cc2)cc1 (stereo not drawn) | 11.2% |
| Cc1cccc(NC(=S)NNC(=O)CCn2cc(C)cn2)c1 | 5.5% |
| CC1CCCN(Cc2c(O)ccc3c(=O)c(-c4nc5ccccc5s4)c(N)oc23)C1 (stereo not drawn) | -0.886% |
| O=C(Cn1cnc2ccccc2c1=O)NCCCN1CCCC1=O | -5.14% |
| CC1CN=C(NC(=O)c2cccc([N+](=O)[O-])c2)S1.Cl (stereo not drawn) | 4.64% |
| Cc1ccc(C)c(NC(=O)C2CCN(S(=O)(=O)c3ccc4c(c3)NC(=O)CO4)CC2)c1 | -6.02% |
| Cc1ccc(CC(=O)N2CCN(c3ccccn3)CC2)cc1 | -1.99% |
| CC(=O)Nc1sc2c(c1C(c1ccc(Cl)cc1)N1CCOCC1)CCCC2 (stereo not drawn) | -3.98% |
| CN1CCN(S(=O)(=O)c2cccc(C(=O)Nc3cccc([N+](=O)[O-])c3)c2)CC1 | -15.6% |
| COc1cc(/C=C/C(=O)OCC(=O)NCCC2=CCCCC2)ccc1O | 4.58% |
| Cc1ccccc1N(CC(=O)NCc1ccco1)C(=O)CNS(=O)(=O)c1ccc(F)cc1 | -16% |
| COc1ccc(CNn2c(-c3cccs3)nc3ccccc3c2=O)cc1OC | -4.52% |
| CCN1CCN(c2cc3nc(C)n(Cc4ccccc4)c(=O)c3cc2NC(=O)c2ccccc2F)CC1 | -4.27% |
| O=[N+]([O-])c1cccc(-c2ccc(/C=N/NC(=S)Nc3cccc(F)c3)o2)c1 | 10.6% |
| COc1ccc2cc(C(C)=O)c(=O)oc2c1 | -11.4% |
| Cc1csc(SCC(=O)Nc2oc(C)c3c(C)n[nH]c(=O)c23)n1 | -7.82% |
